Here are results for 62 molecules from PubChem BioAssay AID463173 (ICCB-Longwood Screening Facility, Harvard Medical School, 2010).

About 1,700 (3.3%) of roughly 52,000 compounds were called active. Rule as the data show it: active = survival mostly below about 52% (no sharp cut-off); inactive = mostly above about 56%. This is one part of the list.

The test system of this test is Wild type. The experiment in a line: S. aureus survival, RN4220 and DeltatarO strains – OD600, teichoic acid synthesis inhibitors, primary screen (AID 463173). Conditions: S. aureus RN4220 wild type/DeltatarO growth, OD600, 18 h, hits give low values; concentration not given here unless noted.
Take `CC(C)(C)c1ccc(C(=O)Nc2ccc(Cl)cc2C(=O)c2ccccc2)cc1`: the survival was active: 3%. For the molecule `c1cc2c(cc1N1CCNCC1)OCCO2`, the survival was inactive: 115%. `OCC1(CO)COC(c2cccnc2)N1` (configuration not stated): the survival is inactive: 109%. Regarding `CCC1CN(C)CCC1(O)c1ccccc1` (configuration not stated), the survival was inactive: 103%. `CCc1nc2ccccc2c(=O)n1-c1cccc(OC)c1`: the survival was inactive: 115%. For the molecule `O=C(COc1cc(Cl)ccc1Cl)Nc1ccc(Cl)cc1C(=O)c1ccccc1`, the survival is inactive: 75%. As for `Cc1cccc(CN2CC=C(c3noc(CCC(=O)Nc4ccc(C)c(F)c4)n3)CC2)c1`, the survival is inactive: 82%. As to `Fc1ccccc1CN1CCN(Cc2ccccc2F)CC1`, the survival is inactive: 119%. Take `Cc1ccc2c(c1)C(Cc1nc3ccccc3c(=O)n1-c1ccc(Br)cc1)C(=O)N2` (configuration not stated): the survival was inactive: 90%. Consider `N#CSCC(=O)N1c2ccccc2CCc2ccccc21`, for which the survival is inactive: 41%. The result for `O=C(COc1ccccc1F)N1CCN(Cc2cc(=O)n3nc(-c4ccccc4Cl)sc3n2)CC1` reads inactive: 136%; that for `O=C(Cn1ncc2c([nH]c3ccccc32)c1=O)NCCCN1CCN(c2ccccc2)CC1`, inactive: 78% [screened at 18.75 µg/mL (by protocol)]. To `Cc1ccc(-n2c(=O)[nH]c3ccc(Br)cc3c2=O)cc1` belongs inactive: 67%; to `Cc1cccc(OCC(=O)N2CCN(CCc3ccccn3)CC2)c1`, inactive: 86%.

In the case of `COc1ccc(NC2=NCC(C)S2)cc1` (configuration not stated), the survival was inactive: 113%.

On to `CCOc1nc(NCc2ccco2)nc(N2CC3CC(C2)c2cccc(=O)n2C3)n1` (configuration not stated), for which the survival is inactive: 104%. With `O=C(Nc1ccc(F)c([N+](=O)[O-])c1)c1cccn(Cc2ccccc2)c1=O`, the survival is inactive: 115%. `O=C(COc1ccc(C=C2C(=O)NC(=O)NC2=O)cc1)NCC1CCCO1` (configuration not stated): the survival is inactive: 109%.

As to `CC(C)(C)c1nc(N2CCN(C(=O)c3ccco3)CC2)c2nnn(Cc3ccccc3Cl)c2n1`, the survival was inactive: 109%. Consider `N#CC1=C(N)Oc2c(c(=O)oc3ccccc23)C1Cc1ccccc1` (configuration not stated), for which the survival was inactive: 97%. To `CCC(CC)C(=O)NC1CCSC1=O` (configuration not stated) belongs inactive: 111%; to `CC(=O)N(C1=NCCCS1)c1ccc(C)cc1`, inactive: 103%. The result for `CCCCCCc1cc(O)c2c(c1)OC(C)(C)C1=C2CCN(C)C1` reads inactive: 105%. In the case of `Cc1ccc(Cn2cccc(C(=O)Nc3ccc4c(c3)OCO4)c2=O)cc1`, the survival is inactive: 70%. To `COc1cccc(NC(=O)Cn2cc(C(=O)c3ccccc3)c3ccccc32)c1` belongs inactive: 64%; to `O=C1NC(=O)N(Cc2ccccc2)C(=O)/C1=C/c1ccc2c(c1)OCO2`, inactive: 77%. As to `CCCOc1ccc(C2SCC(=O)Nc3c2c(C)nn3-c2cccc(C)c2)cc1OC` (configuration not stated), the survival is inactive: 62%. To `CCN(CC)CCSc1nc2ccccc2c(=O)n1-c1ccc(Cl)cc1` belongs inactive: 130%; to `CN1C(=O)C(=C/C=C/c2ccccc2)C(=O)N(C)C1=O`, inactive: 113%; to `Cc1cccc(Cn2cccc(C(=O)Nc3ccc4c(c3)OCCO4)c2=O)c1`, inactive: 90%. In the case of `CCOc1ccc(CN(CCc2ccc3c(c2)OCO3)Cc2cccc(OC)c2)cc1`, the survival is inactive: 42%.

Consider `COC(=O)C1(O)c2ccccc2-c2ccccc21`, for which the survival is inactive: 108%.

Take `CCN(CC)c1ccc(C=C(C#N)C#N)cc1`: the survival is inactive: 107%.

Take `CN(C)S(=O)(=O)c1ccc(N2CCNCC2)cc1`: the survival was inactive: 99%.

Take `COc1ccc(C)cc1NC(=O)N(Cc1ccc2c(c1)OCO2)C1CCN(Cc2ccccc2)CC1`: the survival is inactive: 73%. Regarding `CCOc1ccc(NC(=O)Cn2cc(C(=O)c3ccccc3)c3ccccc32)cc1`, the survival is inactive: 72%. As to `CC(C)C12CN3CC(C(C)C)(CN(C1)C3c1ccccn1)C2=O` (configuration not stated), the survival is inactive: 85%. Regarding `Cc1ccc(-n2c(/C=C\c3ccc(F)cc3)nc3ccccc3c2=O)cc1Cl`, the survival was inactive: 72%. Take `Cc1cccc(-c2nc(CN3C(=O)CN=C(c4ccccc4)c4ccccc43)c(C)o2)c1`: the survival was active: 2%. In the case of `Cn1c(=O)n(C)c2cc(CNCCc3ccc(F)cc3)ccc21`, the survival was inactive: 86%. Regarding `Cc1ccc(NC(=O)Cn2cc(C(=O)c3ccccc3)c3ccccc32)cc1`, the survival is inactive: 114%.

Take `Cc1ccc(Cl)cc1NC(=O)N(Cc1ccc2c(c1)OCO2)C1CCN(Cc2ccccc2)CC1`: the survival was active: 14%. In the case of `N#CSC12CN3CN(CN(C3)C1)C2`, the survival was inactive: 111%. Take `Cc1ccc2nc(NC(=O)c3cccn(Cc4ccc(Cl)cc4)c3=O)sc2c1`: the survival was inactive: 84%. In the case of `COC(=O)Cn1cc(C=C2C(=O)N(C)C(=O)N(C)C2=O)c2ccccc21`, the survival is inactive: 103%.

`CC(c1ccccc1F)n1cc(C(=O)Nc2ccc3nc[nH]c3c2)nn1` (configuration not stated): the survival was inactive: 108%. The result for `Cc1ccc(-n2c(/C=C/c3ccc(Br)s3)nc3ccccc3c2=O)cc1` reads inactive: 58%; that for `O=C1CC(=O)N(C2CCCCC2)C(=O)N1`, inactive: 100%. As to `O=c1c2ccccc2nc(/C=C/c2cccc3ccccc23)n1-c1ccccc1Cl`, the survival is inactive: 70%. For the molecule `COc1ccc(Cl)cc1NC(=O)CN1C(=O)CN=C(c2ccccc2)c2cc(Cl)ccc21`, the survival was inactive: 73%. `O=C1NC(=O)N(Cc2ccco2)C(=O)/C1=C\c1ccco1`: the survival was inactive: 111%. To `Cc1cccc(-n2c(/C=C/c3ccccc3O)nc3ccccc3c2=O)c1` belongs inactive: 12%; to `CCOc1ccc(N(C(C)=O)C2=NCCCS2)cc1`, inactive: 94%. To `CCc1ccc(NC(=O)c2cccn(Cc3cccc([N+](=O)[O-])c3)c2=O)cc1` belongs inactive: 82%; to `CNC(=O)Oc1c(Cl)cc(Cl)cc1Cl`, inactive: 105%. On to `CCCCc1ccc(NC(=O)c2cccn(Cc3ccc(Cl)cc3)c2=O)cc1`, for which the survival is inactive: 79%.

As to `Cc1c(C(c2ccc(Cl)cc2Cl)c2c(O)c3ccccc3oc2=O)c(=O)n(-c2ccccc2)n1C` (configuration not stated), the survival is inactive: 60%. As to `O=c1c2ccccc2nc(/C=C\c2ccccc2F)n1-c1ccc(O)cc1`, the survival is inactive: 73%. On to `COc1ccc(Br)cc1CN1CCN(C(=O)Cc2ccccc2)CC1`, for which the survival was inactive: 109%. For `Cc1ccc(-n2c(/C=C/c3cc(Br)cs3)nc3ccccc3c2=O)cc1`, the survival is inactive: 64%. To `Cc1ccccc1CN1C(=O)CN=C(c2ccccc2)c2cc(Cl)ccc21` belongs inactive: 90%; to `COc1ccc(C(=O)Nc2ccc(Cl)cc2C(=O)c2ccccc2)c(OC)c1`, active: -2%.
